Source: PubChem BioAssay AID463173 (ICCB-Longwood Screening Facility, Harvard Medical School, 2010)
The whole screen tested about 52,000 compounds, of which about 1,700 (3.3%) were called active. Rule as the data show it: active = survival mostly below about 52% (no sharp cut-off); inactive = mostly above about 56%. The list shows a part of the results.

test system: Wild type; assay: S. aureus survival, RN4220 and DeltatarO strains – OD600, teichoic acid synthesis inhibitors, primary screen (AID 463173); conditions: S. aureus RN4220 wild type/DeltatarO growth, OD600, 18 h, active compounds read low, screened at 18.75 µg/mL (by protocol)

| Compound | survival |
| --- | --- |
| CC(C)C(Nc1ncnc2c1oc1ccccc12)C(=O)O (stereo not given) | inactive: 118% |
| CCCCOc1ccc(C(=O)Nc2ccc3oc(-c4cccnc4)nc3c2)cc1 | inactive: 71% |
| COc1ccc(OCC(=O)N2CCC(c3nc4ccccc4s3)CC2)cc1 | inactive: 76% |
| O=C(NC1CCCC1)c1ccc(CSc2nc3ccncc3n2Cc2cccc(F)c2)cc1 | inactive: 75% |
| CCOc1cc(C(=O)NCc2ccc3c(c2)CCN3C(=O)c2ccc(F)cc2)cc(OCC)c1OCC | inactive: 129% |
| COc1ccc(CNC(=O)C(C)Sc2nc(-c3ccccc3)cc(C(F)(F)F)n2)cc1 (stereo not given) | inactive: 149% |
| Cc1ccc(CNC(=O)c2ccc3c(c2)c(C)c(C)n3Cc2ccccc2)o1 | inactive: 91% |
| O=C(COc1ccccc1Cl)OCc1cc(=O)n2nc(C3CCCCC3)sc2n1 | inactive: 71% |
| Cc1cccc(S(=O)(=O)c2cn(Cc3ccccc3)c3cc(N4CCOCC4)c(F)cc3c2=O)c1 | inactive: 71% |
| CC1Cc2cc(S(=O)(=O)NCCc3ccc(Cl)cc3)ccc2N1C(=O)C1CCC1 (stereo not given) | inactive: 80% |
| COc1ccccc1Cn1cc(C(=O)c2ccc(Cl)cc2)c(=O)c2ccccc21 | inactive: 101% |
| Cc1c2cnn(CC(=O)NCC(C)c3ccccc3)c(=O)c2c(C)n1Cc1cccc(Cl)c1 (stereo not given) | inactive: 95% |
| CCn1ccc2cc(S(=O)(=O)N3CCC(C(=O)NCCc4ccccc4Cl)CC3)ccc21 | inactive: 75% |
| CCc1ccc(C(=O)c2cnc3ccc(F)cc3c2S(=O)(=O)c2ccccc2)cc1 | inactive: 135% |
| CC(C)OCCCNC(=O)c1cn(C)c2ccc(S(=O)(=O)N3CCCCCC3)cc2c1=O | inactive: 131% |
| Cc1cccc(N2CCN(C(=O)C3CCCN(S(=O)(=O)c4ccc5c(c4)oc(=O)n5C)C3)CC2)c1C (stereo not given) | inactive: 86% |
| Cc1oc2ccc(O)c(CN3CCCC3)c2c1C(=O)Nc1ccccc1 | inactive: 86% |
| CC1(C(=O)O)CCC(C(=O)N2CCCCC2)C1(C)C (stereo not given) | inactive: 106% |
| COc1ccccc1NC(=O)C(C)Sc1nnc2ccc3ccccc3n12 (stereo not given) | inactive: 81% |
| Cc1ccc(CNC(=O)CN2C(=O)CCn3nc(-c4ccccc4)cc32)cc1 | inactive: 68% |
| CCc1cccc2c(-c3ccccc3)nc(SCC(=O)Nc3ccccc3OC)nc12 | inactive: 127% |
| Cc1ccc(-n2ncc(C(=O)NCc3cccs3)c2C2CCN(C(=O)OC(C)(C)C)CC2)cc1 | inactive: 78% |
| CCCn1c(=O)c2sccc2n2c(CCCC(=O)NC3CCC(C)CC3)nnc12 (stereo not given) | inactive: 100% |

| Compound | survival |
| --- | --- |
| CCCCOc1ccc(C(=O)NCCc2csc(-c3cccc(F)c3)n2)cc1 | inactive: 72% |
| CC1Cc2cc(S(=O)(=O)CCC(=O)NCc3ccc(Cl)cc3)ccc2N1C(=O)C1CC1 (stereo not given) | inactive: 83% |
| COCCOC(=O)C1=C(C)NC(=O)NC1c1cn(-c2ccccc2)nc1-c1ccccc1 (stereo not given) | inactive: 68% |
| O=C(CS(=O)(=O)Cc1ccccc1)Nc1ccccn1 | inactive: 115% |
| COc1ccc(OC)c(CCNC(=O)CCc2cn(Cc3cc(C)ccc3C)c3ccccc23)c1 | inactive: 84% |
| Cc1ccc(CNCC(C)O)s1 (stereo not given) | inactive: 96% |
| Cc1ccc(Cl)cc1NS(=O)(=O)c1ccc2c(c1)NC(=O)CCS2 | inactive: 82% |
| O=C(Cn1c(=O)c2cccn2c2ccc(F)cc21)N1CCN(c2ccccc2F)CC1 | inactive: 89% |
| COc1cccc(C2NC(=O)c3n[nH]c(-c4cccs4)c32)c1 (stereo not given) | inactive: 72% |
| O=C(N1CCOCC1)C1(c2ccc(Cl)cc2)CCCC1 | inactive: 108% |
| Fc1ccc(-n2ncc3c(NCCCn4ccnc4)ncnc32)cc1 | inactive: 80% |
| CN1CCN(C(CNC(=O)c2ccccc2F)c2ccc3c(c2)OCO3)CC1 (stereo not given) | inactive: 72% |
| COc1ccc(C(=O)N(Cc2cc(OC)c(OC)c(OC)c2)c2ccccn2)cc1 | inactive: 84% |
| O=C(Cn1c(=O)nc(-c2ccccc2)c2ccccc21)NCCc1ccc(Cl)cc1 | inactive: 84% |
| COc1ccc(Br)cc1CNC(=O)c1cnc2sc(N3CCCC3)nn2c1=O | inactive: 68% |
| CNc1nc(OCC#N)nc(N2CCCCC2)n1 | inactive: 119% |
| Cc1cc2[nH]c(=O)c(=O)[nH]c2cc1S(=O)(=O)N1CCN(c2cccc(C(F)(F)F)c2)CC1 | inactive: 70% |
| O=C1Nc2ccccc2N(O)N1c1ccccc1Cl | inactive: 112% |
| COc1ccc(-c2cn3nc(N4CCCC(C(=O)Nc5cc(C)ccc5C)C4)sc3n2)cc1 (stereo not given) | inactive: 71% |
| CCN1C(=O)C(O)(CC(=O)c2ccc(OC)c(OC)c2)c2ccccc21 (stereo not given) | inactive: 95% |
| COc1cc(NC(=O)NCC2CCN(Cc3ccccc3Cl)CC2)cc(OC)c1OC | inactive: 72% |
| CCCCN(CC)CCNC(=O)CCn1cnc2onc(-c3ccc(F)cc3)c2c1=O | inactive: 72% |
